{"source": "PubChem BioAssay AID624417", "about": "(National Center for Advancing Translational Sciences (NCATS), 2012)", "note": "About 6,400 (1.6%) of roughly 410,000 compounds were called active. The shares of active, inactive and inconclusive entries below differ from those in the screen. Calls follow the shape of the dose curve; as a rule, active = well fitted inhibition curve with a large enough effect; inconclusive = small, poorly fitted or top-dose-only effect; inactive = no such curve, though single readings can be large or run the other way. Potencies of inconclusive entries are left out as doubtful fits. % is scaled to controls: 0 for no effect and ±100 for the full control effect; potency is read from the fitted curve at half-maximal effect; tags tell the direction and shape of the fitted curve."}
{"target": "Glucagon-like peptide 1 receptor (Homo sapiens) (UniProt P43220)", "sequence (P43220 whole entry, looked up)": "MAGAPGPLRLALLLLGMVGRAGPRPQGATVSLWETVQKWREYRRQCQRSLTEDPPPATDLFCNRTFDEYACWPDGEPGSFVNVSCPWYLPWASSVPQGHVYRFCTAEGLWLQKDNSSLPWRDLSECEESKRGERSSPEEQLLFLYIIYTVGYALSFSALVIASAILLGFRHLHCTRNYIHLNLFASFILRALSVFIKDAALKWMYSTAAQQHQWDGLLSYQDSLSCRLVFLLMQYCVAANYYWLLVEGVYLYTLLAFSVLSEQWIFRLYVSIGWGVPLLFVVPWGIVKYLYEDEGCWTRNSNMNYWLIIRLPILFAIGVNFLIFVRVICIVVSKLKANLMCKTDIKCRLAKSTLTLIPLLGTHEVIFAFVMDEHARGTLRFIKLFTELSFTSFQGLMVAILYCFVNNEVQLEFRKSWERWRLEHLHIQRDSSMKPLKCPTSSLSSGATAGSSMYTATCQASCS", "assay": "qHTS of GLP-1 Receptor Inverse Agonists (Inhibition Mode); also: nearly all actives have a fitted effect of over 55% in size", "settings": "HEK293 GLP-1R CRE-luciferase, luminescence, 24 h, GLP-1R form is constitutively active; activity change, negative = inhibition: at 38.3 µM (top of the series) unless noted", "method_in_brief": "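qHTS in 1536-well format: reporter HEK293 cells expressing constitutive GLP-1R activity in DMEM + 10% Nu serum, 24 hr with compounds at 37 deg C, luminescence read after 12 min with detection reagent.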"}
{"compound": "Cc1ccc2[nH]cc(/C=C/c3cc[n+](C)cc3)c2c1", "Potency": "inconclusive [inhibitor, full curve]"}
{"compound": "Cc1ccnc(NC(=O)c2ccc3c(c2)OCO3)c1", "Potency": "inconclusive [inhibitor, partial curve]"}
{"compound": "CCCCN1C(=O)C(O)(CC(=O)c2ccco2)c2cc(Br)ccc21", "note": "(stereo not drawn)", "Potency": "inconclusive [inhibitor, single point]"}
{"compound": "COc1cccc(/C=N/n2c(COc3ccccc3)n[nH]c2=S)c1", "activity change, negative = inhibition": "inactive: 1.38%"}
{"compound": "CCCOc1cccc(C2c3c(-c4ccccc4O)n[nH]c3C(=O)N2Cc2ccco2)c1", "note": "(stereo not drawn)", "Potency": "inconclusive [inhibitor, single point]"}
{"compound": "Cn1nc(C(F)(F)F)c(-c2ccc(F)cc2)c1NC(=O)c1cccnc1", "Potency": "inconclusive [inhibitor, single point]"}
{"compound": "Cc1ccc(C)c(NC(=O)c2ccc(OCc3c(C)noc3C)cc2)c1", "activity change, negative = inhibition": "inactive: -16.3%"}
{"compound": "COc1ccc(-c2nnc(SCC(=O)NC(=O)NCc3ccco3)o2)cc1", "Potency": "inconclusive [inhibitor, single point]"}
{"compound": "Cc1cc(S(=O)(=O)N2CCN(c3ccccc3O)CC2)c(C)s1", "Potency": "inconclusive [inhibitor, single point]"}
{"compound": "Clc1ccc(OCc2nnnn2-c2ccccc2)cc1", "Potency": "inconclusive [inhibitor, single point]"}
{"compound": "CC(=O)c1ccc(NC(=O)CSc2cn(CC(=O)N(C(C)C)C(C)C)c3ccccc23)cc1", "activity change, negative = inhibition": "inactive: -26.2%"}
{"compound": "Cc1ccc(S(=O)(=O)NC(c2ccccc2)C(C)C(=O)n2nc(C)cc2C)cc1", "note": "(stereo not drawn)", "Potency": "inconclusive [inhibitor, partial curve, poor fit]"}
{"compound": "CCCCCCNC(=O)OC12CN(C(=O)OC(C)C)N(C(=O)OC(C)C)CC1(O)CN(S(=O)(=O)c1ccc(C)cc1)C2", "note": "(stereo not drawn)", "Potency": "inconclusive [inhibitor, partial curve, poor fit]"}
{"compound": "COc1ccc([N+](=O)[O-])cc1NC(=O)CC(C)c1ccccc1", "note": "(stereo not drawn)", "Potency": "inconclusive [inhibitor, single point]"}
{"compound": "Cc1ccccc1OCc1nc2ccccc2n1Cc1ccccc1Cl", "Potency": "active: 3.55 µM"}
{"compound": "Cc1ccc(-n2ncc3c(N4CCCC4)ncnc32)c(C)c1", "activity change, negative = inhibition": "inactive: 0%"}
{"compound": "O=C(Nc1ccccc1C(=O)N1CCN(c2cccc(Cl)c2)CC1)C1=CSCCO1", "Potency": "inconclusive [inhibitor, single point]"}
{"compound": "Cc1ccc(S(=O)(=O)N2CCCCC2)cc1C(=O)N(C)CC(=O)Nc1ccc(Cl)c(C(F)(F)F)c1", "Potency": "inconclusive [inhibitor, full curve, poor fit]"}
